In all, about 310,000 compounds went through this assay and about 2,200 (0.71%) showed an effect of 50% or more. Effects have a minus sign here. This is one part of the list. Where a SMILES comes first, the peptide text is derived from it. The star is where a group is joined. OPac = O=C(CO*)c1ccccc1; Bz = O=C(c1ccccc1)*
molecular target: human ether-à-go-go-related gene (hERG) potassium channel (human, UniProt Q12809); test: primary screen, population patch clamp on CHO cells stably expressing hERG
Sequence (Q12809 whole entry, looked up): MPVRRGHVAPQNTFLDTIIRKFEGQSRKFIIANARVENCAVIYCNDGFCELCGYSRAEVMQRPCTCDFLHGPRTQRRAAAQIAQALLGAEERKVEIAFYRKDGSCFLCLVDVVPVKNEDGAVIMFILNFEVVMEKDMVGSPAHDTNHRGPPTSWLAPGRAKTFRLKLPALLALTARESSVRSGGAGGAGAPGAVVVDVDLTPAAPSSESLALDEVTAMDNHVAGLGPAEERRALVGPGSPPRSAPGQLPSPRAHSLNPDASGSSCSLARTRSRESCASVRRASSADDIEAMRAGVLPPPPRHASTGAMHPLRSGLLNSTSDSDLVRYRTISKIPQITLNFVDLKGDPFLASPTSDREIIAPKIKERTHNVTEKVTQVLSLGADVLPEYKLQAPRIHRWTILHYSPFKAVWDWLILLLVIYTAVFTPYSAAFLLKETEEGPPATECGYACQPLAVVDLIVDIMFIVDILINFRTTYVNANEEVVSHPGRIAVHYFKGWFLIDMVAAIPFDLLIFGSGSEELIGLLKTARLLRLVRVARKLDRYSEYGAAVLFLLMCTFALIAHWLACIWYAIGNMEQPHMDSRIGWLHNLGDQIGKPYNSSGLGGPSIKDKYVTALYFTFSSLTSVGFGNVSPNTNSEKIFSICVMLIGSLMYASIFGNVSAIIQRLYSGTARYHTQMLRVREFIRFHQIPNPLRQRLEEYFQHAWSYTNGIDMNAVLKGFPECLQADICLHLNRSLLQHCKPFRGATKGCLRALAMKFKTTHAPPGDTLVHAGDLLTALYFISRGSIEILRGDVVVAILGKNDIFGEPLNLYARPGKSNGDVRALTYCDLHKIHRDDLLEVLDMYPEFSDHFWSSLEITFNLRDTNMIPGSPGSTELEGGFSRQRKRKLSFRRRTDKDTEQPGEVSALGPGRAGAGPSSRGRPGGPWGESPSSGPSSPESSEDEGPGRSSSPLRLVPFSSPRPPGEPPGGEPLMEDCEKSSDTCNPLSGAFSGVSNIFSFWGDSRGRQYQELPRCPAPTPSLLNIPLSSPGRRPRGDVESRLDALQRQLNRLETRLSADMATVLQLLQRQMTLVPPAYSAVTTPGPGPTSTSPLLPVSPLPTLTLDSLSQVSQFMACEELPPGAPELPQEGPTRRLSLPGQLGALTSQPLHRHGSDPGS

Compared with `CN1CCN(S(=O)(=O)c2cccc(C(=O)N(Cc3ccccc3)c3ccccc3)c2)CC1`, `COCc1c(C(=O)N2CCN(S(=O)(=O)c3ccccc3Cl)CC2)oc2ccccc12` is higher in “hERG current change (%, negative = inhibition) at 1uM” value: -7.88% for the first, 5.51% for the second.

Going from `COc1ccc(NC(=O)CSc2nnc(-c3cccnc3)o2)cc1` to `Cc1ccc(NC(=O)COc2ccc(-n3ccnc3)cc2)cc1Cl`, the “hERG current change (%, negative = inhibition) at 1uM” value rises from -7.57% to 9.75%.

Compared with `CC(/C=N/NC(=O)CSc1n[nH]c(=O)[nH]c1=O)=C\c1ccccc1`, `Cn1c(SCC(=O)N/N=C/c2ccncc2)nc2ccccc21` is lower in “hERG current change (%, negative = inhibition) at 1uM” value: 17.7% for the first, 4.27% for the second.

Compared with `O=C1C2C3CC(C2C(=O)N1c1cccc(Cl)c1)[C@H](O)C3O` (some centres unmarked), `O=C(CNC(=O)c1ccc(Cl)cc1)OC1CCOC1=O` (centres unmarked) is higher in “hERG current change (%, negative = inhibition) at 1uM” value: 10.7% for the first, 10.9% for the second.

Going from `CC(C)n1c(-c2ccc(N(C)C)cc2)nc2ccccc21` to `Cc1ccc(-n2c(-c3ccccc3)nnc2-c2cccs2)cc1`, the “hERG current change (%, negative = inhibition) at 1uM” value rises from -10.3% to 17.5%.

Compared with `O=C(Nc1ccccc1)c1ccc(S(=O)(=O)NCC2CCCO2)cc1` (centres unmarked), `CS(=O)(=O)N(CC(=O)Nc1ccccc1Sc1ccccc1)C1CCCCC1` is higher in “hERG current change (%, negative = inhibition) at 1uM” value: 8.3% for the first, 10.2% for the second.

First: CCOc1ccc(S(=O)(=O)N2CCCCC2)cc1NC(=O)CN1C(=O)NC(C)(c2ccccc2)C1=O (centres unmarked)
Second: CCOc1ccccc1N(CC(=O)NC1CCCCC1)S(=O)(=O)c1ccccc1
The “hERG current change (%, negative = inhibition) at 1uM” value of the first is lower: -1.31% for the first, -0.305% for the second.

Going from `COc1cccc(C(=O)N(C)c2nnc(-c3ccncc3)s2)c1` to `COc1ccc(Oc2ccc(/C=C/C(=O)c3cccc(OC)c3)cc2[N+](=O)[O-])cc1`, the “hERG current change (%, negative = inhibition) at 1uM” value falls from 8.46% to -5.81%.

Going from `CC(C)(Oc1ccc(CCNC(=O)c2ccc(-c3ccccc3)o2)cc1)C(=O)O` to `Cc1ccc(C(=O)Nc2cccc(Oc3ccccc3)c2)o1`, the “hERG current change (%, negative = inhibition) at 1uM” value falls from 14% to 2.22%.

Going from `Cc1cc(C=O)c(C)n1-c1ccc(Cl)c(C(=O)O)c1` to `CC(=O)c1c(C)[nH]c(C(=O)Nc2c(C)n(C)n(-c3ccccc3)c2=O)c1C`, the “hERG current change (%, negative = inhibition) at 1uM” value rises from 11.2% to 16.4%.

Compared with `O=C(NCc1ccccn1)C(=O)N/N=C/c1ccccc1O`, `O=C(CNC(=O)c1ccccc1)NCC(=O)OCC(=O)c1ccccc1` (Bz-Gly-Gly-OPac) is lower in “hERG current change (%, negative = inhibition) at 1uM” value: 9.96% for the first, 1.52% for the second.

Going from `CCc1cc(C(=O)c2ccccc2)c(N)s1` to `COc1ccc(C(C)=O)cc1CSc1nncn1-c1ccccc1`, the “hERG current change (%, negative = inhibition) at 1uM” value falls from -0.56% to -5.26%.

Compared with `Cc1cc(Cl)ccc1OCC(=O)Nc1ccncc1`, `Cc1ccc(C)c(OCC(=O)Nc2ccc3c(c2)OCO3)c1` is lower in “hERG current change (%, negative = inhibition) at 1uM” value: 10.9% for the first, 7.33% for the second.

Compared with `CC(=O)c1nn(-c2cccc(Br)c2)cc1C(=O)c1ccco1`, `COc1ccc(-n2cnc(N)c2C(=O)c2cccc([N+](=O)[O-])c2)cc1` is higher in “hERG current change (%, negative = inhibition) at 1uM” value: 4.83% for the first, 6.43% for the second.

First: Cc1ccc(S(=O)(=O)CC(C)N2CCN(C3CCCCC3)CC2)cc1 (centres unmarked)
Second: O=C(NC1CCS(=O)(=O)C1)c1cccc(S(=O)(=O)N2CCCCCC2)c1 (centres unmarked)
The “hERG current change (%, negative = inhibition) at 1uM” value of the first is lower: -3.39% for the first, 7.97% for the second.

Compared with `O=C(CN1CCCCCC1)NCCc1ccc(F)cc1.O=C(O)C(=O)O`, `O=C(NCCc1ccc(Cl)cc1)C1CCN(C(=O)c2ccc(F)cc2)CC1` is lower in “hERG current change (%, negative = inhibition) at 1uM” value: 0.367% for the first, -14.3% for the second.

Going from `O=C1NC(c2ccccc2)Oc2ccccc21` (centres unmarked) to `Cl.O=C(O)CCNc1nc(-c2ccccc2)nc2ccccc12`, the “hERG current change (%, negative = inhibition) at 1uM” value falls from 11.7% to 7.06%.

Going from `COc1cc2c(cc1NC(=O)CSc1nnc(Cc3cccs3)n1C)oc1ccccc12` to `O=C(CSc1nc2c(sc3ccccc32)c(=O)n1CCc1ccccc1)NCc1ccco1`, the “hERG current change (%, negative = inhibition) at 1uM” value falls from 9.32% to 2.54%.

Compared with `Cc1ccc(C(=O)C2OC(=O)C(C)(C)C(=O)C2(C)C)cc1` (centres unmarked), `Cn1c(N)c(C(=O)COC(=O)c2ccc(OC(F)F)cc2)c(=O)n(C)c1=O` is higher in “hERG current change (%, negative = inhibition) at 1uM” value: 2.32% for the first, 10.9% for the second.

Compared with `CCO[C@H]1OC(C(=O)N2CCN(Cc3ccccc3)CC2)=C[C@@H](c2ccc(C(F)(F)F)cc2)[C@@H]1CCCO`, `CCC(C)(C)N1CC(=O)N(Cc2ccccc2)C(c2ccc(OC)cc2)C1=O` (centres unmarked) is lower in “hERG current change (%, negative = inhibition) at 1uM” value: 11.5% for the first, -7.3% for the second.

Compared with `COc1ccc2[nH]c(=O)c(CNc3cccc(C)c3)cc2c1`, `COc1ccccc1NC(=O)Nc1nc(CC(=O)Nc2cccc(F)c2)cs1` is higher in “hERG current change (%, negative = inhibition) at 1uM” value: 3.98% for the first, 12.1% for the second.

`O=C(O)c1cccc(NC(=O)c2ccccc2NC(=O)c2ccccc2F)c1` and `O=C(O)c1ccc(CSc2nnc(-c3ccccc3)n2-c2ccccc2)cc1` are the same in “hERG current change (%, negative = inhibition) at 1uM” value: 13.1% for the first, 13.1% for the second.

First: CC1=CC(c2ccc(Cl)cc2)n2nc(NS(=O)(=O)c3ccc(C)cc3)nc2N1 (centres unmarked)
Second: Cc1ccnc(NS(=O)(=O)c2ccc(NC(=O)C3CC=CCC3C(=O)O)cc2)n1 (centres unmarked)
The “hERG current change (%, negative = inhibition) at 1uM” value of the first is lower: 5.28% for the first, 6.12% for the second.

First: C/C(=N\Nc1nc(-c2ccc(C)cc2C)cs1)c1cc2ccccc2oc1=O
Second: Cc1ccc(N2C(=O)CSC2c2ccccn2)cc1Cl (centres unmarked)
The “hERG current change (%, negative = inhibition) at 1uM” value of the first is higher: 14.4% for the first, 13.8% for the second.

First: CC(C)(C)S(=O)(=O)c1cnc(-c2ccc(Cl)cc2)nc1N
Second: CCN(CC)S(=O)(=O)c1cc(Cl)ccc1OC
The “hERG current change (%, negative = inhibition) at 1uM” value of the first is higher: 9.11% for the first, 5.73% for the second.

First: CC1=CC2=NC(=O)CC(C)(C(=O)N(CC(=O)NC3CCCC3)Cc3ccc(Cl)cc3)N2C=C1 (centres unmarked)
Second: Cc1ccccc1C(=O)Oc1ccc(Cl)cc1C(=S)N1CCOCC1
The “hERG current change (%, negative = inhibition) at 1uM” value of the first is lower: 5.28% for the first, 10.1% for the second.

Going from `CSCCC(Nc1ccc(S(=O)(=O)N2CCOCC2)cc1[N+](=O)[O-])C(=O)OCC(=O)NCC(C)C` (centres unmarked) to `CC(C)c1ccccc1OCC(=O)Nc1ccccc1C(=O)N1CCOCC1`, the “hERG current change (%, negative = inhibition) at 1uM” value falls from 4.99% to -11.3%.

Going from `CN(Cc1ccc(C(C)(C)C)cc1)C(=O)Cc1ccc(S(=O)(=O)N2CCOCC2)s1` to `COCCNC(=O)c1ccc(CN2CCc3ccccc3C2)cc1`, the “hERG current change (%, negative = inhibition) at 1uM” value rises from 9.07% to 10.4%.

First: CN1CC(=O)Nc2ccc([N+](=O)[O-])cc2C1=O
Second: O=C(Cc1ccc([N+](=O)[O-])cc1)Nc1ccc2c(c1)OCO2
The “hERG current change (%, negative = inhibition) at 1uM” value of the first is higher: 17.6% for the first, 6.1% for the second.

First: COc1cc(C(=O)N2CCc3ccccc32)cc(OC)c1OC
Second: COc1ccc(-c2noc(N3CCC(C(=O)Nc4cc(OC)c(OC)c(OC)c4)CC3)n2)cc1
The “hERG current change (%, negative = inhibition) at 1uM” value of the first is higher: 16.1% for the first, 7.22% for the second.

Compared with `Cc1ccc(S(=O)(=O)N(C(=O)c2ccncc2)c2ccc(OC(=O)c3ccncc3)cc2)cc1`, `CO/N=C/c1ccc(Oc2ccc(C)cc2)nc1` is higher in “hERG current change (%, negative = inhibition) at 1uM” value: 12.1% for the first, 17.5% for the second.

Compared with `COc1ccc(CCN=C(N)C(C)c2ccccc2)cc1OC.Cl` (centres unmarked), `CC(C)C(NS(=O)(=O)c1cccs1)C(=O)NCc1ccccc1` (centres unmarked) is higher in “hERG current change (%, negative = inhibition) at 1uM” value: 10.4% for the first, 17.6% for the second.

Going from `CCN(CC)CC(O)COCCC12CC3CC(CC(C3)C1)C2.Cl` (centres unmarked) to `CCN(CC)CCNC(=O)CCN1N=C(c2ccccc2)CCC1=O`, the “hERG current change (%, negative = inhibition) at 1uM” value rises from 3.76% to 17.2%.

Compared with `CN1C(=O)CS(=O)c2ccc(C(=O)NCCC3=CCCCC3)cc21` (centres unmarked), `COC(=O)C(Cc1ccc(O)cc1)NC(=O)CCNC(=O)c1ccco1` (centres unmarked) is higher in “hERG current change (%, negative = inhibition) at 1uM” value: 8.43% for the first, 15.5% for the second.

First: Cc1ccc(NC(=O)CSc2sc3c(O)cc(=O)[nH]c3c2C#N)cc1C
Second: COC(=O)c1cnn(-c2nc3c(C)cccc3s2)c1C
The “hERG current change (%, negative = inhibition) at 1uM” value of the first is higher: 0.874% for the first, -9.2% for the second.

Compared with `CC1(C)Cc2c(sc(/N=C/N3CCOCC3)c2C#N)C(C)(C)N1`, `c1ccc(CN2CCOCCOCCOCC2)cc1` is higher in “hERG current change (%, negative = inhibition) at 1uM” value: 0.756% for the first, 11.3% for the second.

Compared with `Cc1ccc(C)c(NC(=O)C2C3C=CC(O3)C2C(=O)O)c1` (centres unmarked), `CCOC(=O)C(=O)Nc1cc(Cl)ccc1C` is lower in “hERG current change (%, negative = inhibition) at 1uM” value: 17.4% for the first, 11.4% for the second.

Compared with `S=C(Nc1ccc(Cl)cc1)NC1CC2CCCC(C1)N2C1CCCC1` (centres unmarked), `O=C(NC1CC1)C1CCN(C2CCN(C(=O)c3c(F)cccc3Cl)CC2)CC1` is higher in “hERG current change (%, negative = inhibition) at 1uM” value: -29% for the first, 12.7% for the second.

First: COCCCNC(=S)NC1CCCCC1
Second: CCOc1ccccc1/C=N/NC(=O)c1nnn(-c2nonc2N)c1CN1CCC(C)CC1
The “hERG current change (%, negative = inhibition) at 1uM” value of the first is lower: 1.65% for the first, 6.06% for the second.

Compared with `O=C(c1ccc2nc(-c3ccccc3)c(-c3ccccc3)nc2c1)N1CCCCC1`, `Cc1[nH]c2c(C(=O)N3CCCC(CCC(=O)NCc4ccccc4F)C3)cccc2c1C` (centres unmarked) is higher in “hERG current change (%, negative = inhibition) at 1uM” value: 3.53% for the first, 5.62% for the second.

First: CC(C)CSc1nnc2c(n1)[nH]c1ccccc12
Second: Cn1nnnc1SCc1ccc(CSc2nnnn2C)cc1
The “hERG current change (%, negative = inhibition) at 1uM” value of the first is lower: 6.6% for the first, 12% for the second.

Compared with `CON(C)c1nc(NCC(C)C)nc(OCC#N)n1`, `CC(C)C(=O)N1CCN(CCN=CC2=C(O)CC(c3ccco3)CC2=O)CC1` (centres unmarked) is higher in “hERG current change (%, negative = inhibition) at 1uM” value: 1.5% for the first, 14% for the second.

First: Cc1nn(-c2ccccc2)c(Cl)c1/C=N/NC(=O)c1[nH]ncc1Br
Second: Cc1nn(-c2ccc(F)cc2)c(C)c1/C=C/C(=O)N1CCNC(=O)C1
The “hERG current change (%, negative = inhibition) at 1uM” value of the first is lower: 10.4% for the first, 12.4% for the second.

Going from `C=CCOC(=O)C1=C(C)NC2(O)c3ccccc3C(=O)C12O` (centres unmarked) to `CC(C)NC(=O)CC(=O)N/N=C/c1ccc(F)cc1`, the “hERG current change (%, negative = inhibition) at 1uM” value falls from 5.81% to 3.56%.

For `CCOc1ccc(NC(=O)N2C[C@H]3C[C@@H](C2)c2cccc(=O)n2C3)cc1`, the “hERG current change (%, negative = inhibition) at 1uM” value was 6.17%.

From article PMC4336329 (PLoS ONE, 2015)
